Reference: the supplement of paper PMC11417369
The list shows a part of the results.

test system: PfAP2-HC AP2 domain (GST-tagged); test: gcPBM binding intensity (ln(normalized median fluorescence intensity)); higher = stronger DNA binding
Method in brief: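 The binding buffer was 1× PBS containing 1% milk, 0.2 mg/ml BSA, 0.5% salmon testes DNA and 0.03% Triton X-100. In it, GST-tagged P. falciparum DNA-binding domains expressed in E. coli were applied for 1 h to an Agilent 4 × 180k array of primer-extended double-stranded 36-bp intergenic genomic probes plus negative controls. Binding intensity, read with Alexa488 anti-GST antibody and a 488 nm scan, is the highest Masliner-normalised natural-log median intensity across replicate spots of either probe orientation.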

Sequence | gcPBM binding intensity (ln)
AATCAATATTATATATGTACTTATTTTCACTTTTGC [XGTACX_site1775] | 9.81
TATGAACATATATATTGTACAAAATTATAATTTCAA [XGTACX_site6406] | 9.42
AAGCGAATCTATATCACACACAAAAAAATCAGACTA [CACACA_site7072] | 9.9
AGTTCAGAATTGAATAGTACATAAATATAACAAAAT [XGTACX_site650] | 9.88
AACTGATATTAATTCTGTACCTATACGTTATATGTT [XGTACX_site1003] | 9.86
ACCCAAAATATATTCACACAAAAAATATTAAAAATA [CACACA_site5433] | 9.61
AAAAATAAATATACATGTACATAATAATAATATATA [XGTACX_site8359] | 10.1
TTTGAAAAAAAATATTGTACACGTGAATAAAGTATT [XGTACX_site644] | 9.69
TTGCATCTATTTTTGAGTACACAATGAGAATAATTA [XGTACX_site7171] | 9.26
AAAAAAAAAAGACACACACACACATACACATACATA [CACACA_site7362] | 11.1
TATATATATATATATATATATATATATATAATTTGA [XGTACX_negctrl_site3] | 9.36
TTATTATATATGTTCACATAAATACATAAATATATA [GTGCAC_negctrl_site529] | 9.42
TTAAAAAAGTAATTAACACACAATAATGTAATGCAT [CACACA_site4176] | 9.9
TATTTAAATTAATATTGTACATATATTTATAATATA [XGTACX_site6109] | 9.5
TTTATTTATATAATTACACACATATATACACAAATG [CACACA_site8903] | 9.79
AAATATATTATATATGCATGCGCCAAGATTTATATA [TGCATGCA_site770] | 9.61
TAATATATATAACAAGTGCAAAAAAATATAGATATT [GTGCAC_site9625] | 9.88
AATAAACAAATAAATAAATAAACAGATAAATAAATC [CACACA_negctrl_site920] | 9.84
AAGCATCCTACTGATTGTACATATATATATATATAT [XGTACX_site2150] | 9.93

Sequence | gcPBM binding intensity (ln)
GAGAACATTGATACACGTACATAAGTTATAAGTATT [XGTACX_site7665] | 9.71
TTAGGTTATAAATACACACACAAAAGAAAAAAAAAA [CACACA_site5625] | 10.1
AAAAAAAAAAAAAAAGCACACACACCGATGTGTATA [CACACA_site8224] | 10.8
TATATATATATACCTTGTACTTACATTCGCATATAA [XGTACX_site2466] | 9.63
ACATAAATATATGACACACACACATATTATATATAT [CACACA_site3065] | 11.1
CCATTACCATATAAAACACACAAACATACATACATA [CACACA_site5952] | 10.3
GTATAATTATGTGCACGTACATATTTTATTATATAT [XGTACX_site8586] | 9.93
TATATATATATAAAGACACACATCTATAGAATGTTA [CACACA_site2557] | 9.7
TTGTTTTCTTTTTCTTTTCTTTTTCTTTTTTCTTTT [GTGCAC_negctrl_site629] | 9.76
TATTTATATTTATACACACACACAAAAAAAAAAAAA [CACACA_site6817] | 10.2
AATATAGAAATAAATATATCACATTTGTGTTTAAAC [XGTACX_negctrl_site68] | 9.7
TTTATGACTTGAAAAAGTACACATATATTTATGCAA [XGTACX_site5451] | 9.52
TACCAAATTTATTCTTGTACATATATATATATATAT [XGTACX_site4832] | 9.76
ATATATATTTATAGGTGTACAAAATACTATTTTAGG [XGTACX_site8499] | 9.49
AAAAGGAAAAATATCACACATATATATATATATATA [CACACA_site5586] | 9.69
ATTATTATACACAAATGTACATGTGAATTTTTTTTC [XGTACX_site6982] | 9.63
AATAAGTAACAAAATACACACATATAGGTAATTATA [CACACA_site6949] | 10.2
ATATGTTCCGAAGGTTGTACACACATAGAAATATAC [XGTACX_site8227] | 9.93
AAAATATATACAATATGTACATATATATATATATAT [XGTACX_site1898] | 9.68

Sequence | gcPBM binding intensity (ln)
TTACCCATTCCCTTTACATGCAATTTGTATTAATAA [TGCATGCA_site412] | 9.72
GTACGTTAGATATATACACACATACATAATAAAGAA [CACACA_site7327] | 10.1
TTAATTCTACTTATTACACACATATTAAGCAAAAAT [CACACA_site4921] | 9.63
TTACATGTAAAAGGTACACACATTATGTATACAAAT [CACACA_site1117] | 9.89
TTTTTTTTTTTTTTTTGTCCGTACTGCTTTGTGTTT [XGTACX_site3687] | 9.19
ATGATAAACATGGATACACACATATAGATTGCATAT [CACACA_site6843] | 9.94
ATATATATTAACAATACACACGTGTATACCTTATTG [CACACA_site5258] | 10.1
TTCATCTTAAAATTGGGTACATAACACAAAGTATAA [XGTACX_site1894] | 9.39
ATTTCTCTATCGTAATGTACATAAAAAAGAAAAACA [XGTACX_site6374] | 9.48
TTATTAAATTCATAAGTGCATTTATGATTAATTTTT [GTGCAC_site9749] | 9.57
AATACATACAGACACACACACACATATATATATATA [CACACA_site3558] | 11.5
AAACTTAATATCGGTACACACACAAGATAAGAATTA [CACACA_site8200] | 10.3
CACATACACCCATACACACACATATATATTAAGATA [CACACA_site4459] | 10.2
CTATAAATATTTTATTGTACACACTTTTTATGAATG [XGTACX_site6711] | 9.82
ATATATATATAGTGCACACTTAAGAATATAAAGAGG [CACACA_site1151] | 9.91
AAAATTTTTAGTTATACACACAACATAGAAAATATT [CACACA_site328] | 9.78
CTTAATTTAATGAAATGTACATATAAAAATATTATA [XGTACX_site3303] | 9.45
TTTGATCGATGGATTTAACACACAAAAAAAAAAAAA [CACACA_site9279] | 9.59
